The record followed here is paper PMC11126580.

The chains behind the UniProt entries cited, without tags or fusion partners. Where a name states a change or a piece, a line headed by the entry shows the natural chain unless it says otherwise.
UniProt Q13547: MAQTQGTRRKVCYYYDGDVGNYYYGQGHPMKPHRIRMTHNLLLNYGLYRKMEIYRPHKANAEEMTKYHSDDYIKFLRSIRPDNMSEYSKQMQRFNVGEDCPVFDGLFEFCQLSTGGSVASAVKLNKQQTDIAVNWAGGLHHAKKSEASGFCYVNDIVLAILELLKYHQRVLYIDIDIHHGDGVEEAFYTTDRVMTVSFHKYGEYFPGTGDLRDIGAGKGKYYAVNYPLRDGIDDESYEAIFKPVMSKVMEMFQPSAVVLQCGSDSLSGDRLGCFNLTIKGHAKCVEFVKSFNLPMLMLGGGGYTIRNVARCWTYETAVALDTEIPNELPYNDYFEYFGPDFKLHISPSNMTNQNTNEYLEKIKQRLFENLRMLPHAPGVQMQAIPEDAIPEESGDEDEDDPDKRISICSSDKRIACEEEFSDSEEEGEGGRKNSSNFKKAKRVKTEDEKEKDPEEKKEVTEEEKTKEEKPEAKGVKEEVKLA

Results are given in words; binding and its absence hold for the method and conditions named. Binding seen in cells or lysates may run through a third protein. Some results given as binding are weak or reduced against the parent protein; the word gives no strength.

Test [1] has as its target LIN37 (human (endogenous in HCT116)) (UniProt Q96GY3). The test is described as follows: co-IP; endogenous proteins immunoprecipitated with antibodies on protein A/G magnetic beads from extracts of HCT116 cells treated with 5 µM Idasanutlin for 48 hours; 150 mM NaCl, 0.2% Triton X, 3 hours at 4 °C; eluates analysed by Western blot. On the technique in general: In western blotting, separated proteins are transferred to a membrane and probed.

In test [2] the target is HDAC1 (human (endogenous in T98G)) (UniProt Q13547). The test is described as follows: co-IP; endogenous proteins immunoprecipitated with antibodies on protein A/G magnetic beads from extracts of T98G cells serum-starved for 96 hours; 150 mM NaCl, 0.2% Triton X, 3 hours at 4 °C; eluates analysed by Western blot.
Test [3] deals with LIN37 (human (endogenous in T98G)) (UniProt Q96GY3). The description is as above.
In test [4] the target is T1, SIN3B (human (endogenous in HCT116)) (UniProt O75182).
T1 sequence: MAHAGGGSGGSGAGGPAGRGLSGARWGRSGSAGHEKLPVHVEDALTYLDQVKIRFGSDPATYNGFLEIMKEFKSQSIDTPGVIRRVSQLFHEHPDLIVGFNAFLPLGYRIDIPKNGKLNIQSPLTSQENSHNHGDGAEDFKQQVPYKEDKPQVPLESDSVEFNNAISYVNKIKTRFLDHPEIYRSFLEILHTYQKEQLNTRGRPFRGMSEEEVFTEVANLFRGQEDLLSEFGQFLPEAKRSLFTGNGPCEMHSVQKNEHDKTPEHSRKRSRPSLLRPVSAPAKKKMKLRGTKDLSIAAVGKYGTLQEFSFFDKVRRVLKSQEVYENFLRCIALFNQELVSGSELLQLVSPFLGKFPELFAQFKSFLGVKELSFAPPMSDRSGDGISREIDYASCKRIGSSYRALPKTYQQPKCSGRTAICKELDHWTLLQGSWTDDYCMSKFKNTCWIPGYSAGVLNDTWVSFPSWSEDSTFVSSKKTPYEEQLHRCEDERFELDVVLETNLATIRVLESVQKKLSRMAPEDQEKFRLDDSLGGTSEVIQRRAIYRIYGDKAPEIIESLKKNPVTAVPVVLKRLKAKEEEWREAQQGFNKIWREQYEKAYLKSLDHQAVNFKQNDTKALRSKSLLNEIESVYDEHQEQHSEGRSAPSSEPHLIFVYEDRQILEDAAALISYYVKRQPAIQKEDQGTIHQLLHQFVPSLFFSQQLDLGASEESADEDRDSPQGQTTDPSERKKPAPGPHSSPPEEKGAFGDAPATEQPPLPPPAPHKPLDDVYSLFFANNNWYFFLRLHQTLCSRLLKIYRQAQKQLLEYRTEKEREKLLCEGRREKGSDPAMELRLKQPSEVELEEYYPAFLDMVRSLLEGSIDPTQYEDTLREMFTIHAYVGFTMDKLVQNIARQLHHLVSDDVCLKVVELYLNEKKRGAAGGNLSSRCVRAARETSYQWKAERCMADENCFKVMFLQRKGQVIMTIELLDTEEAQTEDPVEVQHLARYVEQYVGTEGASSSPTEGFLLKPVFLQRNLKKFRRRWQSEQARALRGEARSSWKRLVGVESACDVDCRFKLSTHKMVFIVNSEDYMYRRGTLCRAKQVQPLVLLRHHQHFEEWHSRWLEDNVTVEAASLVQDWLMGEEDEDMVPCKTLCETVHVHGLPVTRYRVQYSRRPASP
Put plainly: co-IP; endogenous proteins immunoprecipitated with antibodies on protein A/G magnetic beads from extracts of HCT116 cells treated with 5 µM Idasanutlin for 48 hours; 150 mM NaCl, 0.2% Triton X, 3 hours at 4 °C; eluates analysed by Western blot.

The target in test [5] is T2, SIN3B (human (endogenous in T98G)) (UniProt O75182).
T2 sequence: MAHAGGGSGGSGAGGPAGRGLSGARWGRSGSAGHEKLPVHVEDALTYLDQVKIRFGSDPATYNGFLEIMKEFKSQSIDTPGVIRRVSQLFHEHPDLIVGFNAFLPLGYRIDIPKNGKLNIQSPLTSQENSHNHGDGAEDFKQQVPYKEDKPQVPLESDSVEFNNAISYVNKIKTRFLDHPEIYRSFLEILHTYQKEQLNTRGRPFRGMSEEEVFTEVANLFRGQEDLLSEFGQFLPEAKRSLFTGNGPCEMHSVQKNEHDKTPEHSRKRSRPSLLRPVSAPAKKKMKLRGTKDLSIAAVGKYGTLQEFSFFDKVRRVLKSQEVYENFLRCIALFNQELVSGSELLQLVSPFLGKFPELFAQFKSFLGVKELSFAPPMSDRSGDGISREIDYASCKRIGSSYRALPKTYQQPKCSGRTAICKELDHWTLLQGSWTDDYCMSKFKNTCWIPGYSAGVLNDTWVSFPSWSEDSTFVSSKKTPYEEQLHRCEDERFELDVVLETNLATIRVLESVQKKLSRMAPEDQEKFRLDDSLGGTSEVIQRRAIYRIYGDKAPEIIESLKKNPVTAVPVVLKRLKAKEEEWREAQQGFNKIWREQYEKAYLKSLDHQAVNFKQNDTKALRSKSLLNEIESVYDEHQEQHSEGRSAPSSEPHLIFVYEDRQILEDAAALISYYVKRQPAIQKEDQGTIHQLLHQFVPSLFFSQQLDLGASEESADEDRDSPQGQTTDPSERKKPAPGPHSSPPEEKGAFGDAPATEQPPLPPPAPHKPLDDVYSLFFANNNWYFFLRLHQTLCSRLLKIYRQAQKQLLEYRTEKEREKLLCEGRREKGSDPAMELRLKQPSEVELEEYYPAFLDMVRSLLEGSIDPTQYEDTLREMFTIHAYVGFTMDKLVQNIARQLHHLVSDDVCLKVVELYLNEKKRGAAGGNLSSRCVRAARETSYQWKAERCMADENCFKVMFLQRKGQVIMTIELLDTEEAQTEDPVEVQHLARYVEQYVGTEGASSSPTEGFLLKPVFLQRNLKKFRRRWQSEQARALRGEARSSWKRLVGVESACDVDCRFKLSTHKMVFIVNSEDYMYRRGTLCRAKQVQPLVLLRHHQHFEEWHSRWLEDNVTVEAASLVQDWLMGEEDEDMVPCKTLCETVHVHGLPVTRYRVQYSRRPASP
Put plainly: co-IP; endogenous proteins immunoprecipitated with antibodies on protein A/G magnetic beads from extracts of T98G cells serum-starved for 96 hours; 150 mM NaCl, 0.2% Triton X, 3 hours at 4 °C; eluates analysed by Western blot.

Test [6] deals with T3, SIN3B (human (endogenous in T98G)), O75182.
T3 chain: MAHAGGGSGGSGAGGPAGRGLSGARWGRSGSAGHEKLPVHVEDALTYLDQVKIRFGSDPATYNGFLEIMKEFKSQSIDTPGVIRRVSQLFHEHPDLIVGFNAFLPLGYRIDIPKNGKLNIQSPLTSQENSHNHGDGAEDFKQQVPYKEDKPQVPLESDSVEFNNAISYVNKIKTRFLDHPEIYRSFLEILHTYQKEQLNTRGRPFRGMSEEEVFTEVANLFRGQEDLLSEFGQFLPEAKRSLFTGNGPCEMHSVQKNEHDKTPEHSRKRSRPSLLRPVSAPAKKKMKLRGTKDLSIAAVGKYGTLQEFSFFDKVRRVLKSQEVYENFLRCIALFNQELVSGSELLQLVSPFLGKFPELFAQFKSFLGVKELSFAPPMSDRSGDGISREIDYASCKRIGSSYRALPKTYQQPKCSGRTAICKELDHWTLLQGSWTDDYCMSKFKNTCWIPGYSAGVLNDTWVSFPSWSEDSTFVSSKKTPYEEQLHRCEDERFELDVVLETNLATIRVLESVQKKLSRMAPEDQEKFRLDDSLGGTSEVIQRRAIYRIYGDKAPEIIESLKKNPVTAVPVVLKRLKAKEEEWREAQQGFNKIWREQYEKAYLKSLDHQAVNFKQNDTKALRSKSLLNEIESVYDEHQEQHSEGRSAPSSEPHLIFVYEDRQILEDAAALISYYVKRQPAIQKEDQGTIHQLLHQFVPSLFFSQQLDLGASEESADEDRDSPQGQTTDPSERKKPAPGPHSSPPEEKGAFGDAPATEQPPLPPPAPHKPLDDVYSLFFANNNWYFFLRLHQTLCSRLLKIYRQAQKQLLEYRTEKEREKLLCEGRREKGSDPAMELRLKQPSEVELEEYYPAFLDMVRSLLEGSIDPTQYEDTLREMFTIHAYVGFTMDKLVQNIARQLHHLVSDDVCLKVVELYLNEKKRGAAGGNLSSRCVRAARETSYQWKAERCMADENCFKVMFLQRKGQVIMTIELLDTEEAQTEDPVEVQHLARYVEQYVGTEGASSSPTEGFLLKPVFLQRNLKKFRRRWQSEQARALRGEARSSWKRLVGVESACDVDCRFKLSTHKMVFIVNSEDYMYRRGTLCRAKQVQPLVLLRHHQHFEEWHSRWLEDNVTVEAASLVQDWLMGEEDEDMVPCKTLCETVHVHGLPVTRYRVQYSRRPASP
The description is as above. To be noted: remark: other sources report otherwise.

For test [7], the target named is T4, LIN37 (human (endogenous in HCT116)), Q96GY3.
T4 chain: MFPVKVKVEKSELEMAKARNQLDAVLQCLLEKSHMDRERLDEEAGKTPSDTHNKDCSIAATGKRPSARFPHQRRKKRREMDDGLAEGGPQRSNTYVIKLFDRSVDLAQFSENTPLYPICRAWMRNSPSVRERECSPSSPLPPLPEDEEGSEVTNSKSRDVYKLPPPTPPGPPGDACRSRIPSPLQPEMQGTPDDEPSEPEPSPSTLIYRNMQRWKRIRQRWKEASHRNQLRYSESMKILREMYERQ
Put plainly: co-IP; endogenous proteins immunoprecipitated with antibodies on protein A/G magnetic beads from extracts of HCT116 cells treated with 5 µM Idasanutlin for 48 hours; 150 mM NaCl, 0.2% Triton X, 3 hours at 4 °C; eluates analysed by Western blot. As to conditions: remark: other sources report otherwise.

Test [8] concerns the target T5, LIN37 (human (endogenous in T98G)), Q96GY3.
T5 chain: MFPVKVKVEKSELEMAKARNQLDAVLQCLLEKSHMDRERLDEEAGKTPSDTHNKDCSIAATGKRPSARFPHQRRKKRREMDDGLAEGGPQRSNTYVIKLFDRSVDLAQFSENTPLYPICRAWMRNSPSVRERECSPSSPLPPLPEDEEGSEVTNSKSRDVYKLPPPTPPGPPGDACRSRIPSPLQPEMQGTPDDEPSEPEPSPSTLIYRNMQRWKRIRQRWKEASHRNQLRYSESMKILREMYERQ
Put plainly: co-IP; endogenous proteins immunoprecipitated with antibodies on protein A/G magnetic beads from extracts of T98G cells serum-starved for 96 hours; 150 mM NaCl, 0.2% Triton X, 3 hours at 4 °C; eluates analysed by Western blot. As to conditions: remark: other sources report otherwise.

LIN9 (from UniProt Q5TKA1 1-542): the binding entry was “binds” in test [1], “no binding” in test [2] and “binds” in test [3].
For the molecule “HDAC1 (from UniProt Q13547 1-482) (enzyme)”, the binding entry in test [1] is “no binding”; in test [4], “binds”; in test [5], “binds”; in test [3], “no binding”.

B1: LIN9, Q5TKA1 1-542 (protein)
chain: MAELDQLPDESSSAKALVSLKEGSLSNTWNEKYSSLQKTPVWKGRNTSSAVEMPFRNSKRSRLFSDEDDRQINTRSPKRNQRVAMVPQKFTATMSTPDKKASQKIGFRLRNLLKLPKAHKWCIYEWFYSNIDKPLFEGDNDFCVCLKESFPNLKTRKLTRVEWGKIRRLMGKPRRCSSAFFEEERSALKQKRQKIRLLQQRKVADVSQFKDLPDEIPLPLVIGTKVTARLRGVHDGLFTGQIDAVDTLNATYRVTFDRTGLGTHTIPDYEVLSNEPHETMPIAAFGQKQRPSRFFMTPPRLHYTPPLQSPIIDNDPLLGQSPWRSKISGSDTETLGGFPVEFLIQVTRLSKILMIKKEHIKKLREMNTEAEKLKSYSMPISIEFQRRYATIVLELEQLNKDLNKVLHKVQQYCYELAPDQGLQPADQPTDMRRRCEEEAQEIVRHANSSTGQPCVENENLTDLISRLTAILLQIKCLAEGGDLNSFEFKSLTDSLNDIKSTIDASNISCFQNNVEIHVAHIQSGLSQMGNLHAFAANNTNRD
Take B1: in test [6], the binding result is listed as “no binding”.

B2: SIN3B, O75182 1-1162 (protein)
chain: MAHAGGGSGGSGAGGPAGRGLSGARWGRSGSAGHEKLPVHVEDALTYLDQVKIRFGSDPATYNGFLEIMKEFKSQSIDTPGVIRRVSQLFHEHPDLIVGFNAFLPLGYRIDIPKNGKLNIQSPLTSQENSHNHGDGAEDFKQQVPYKEDKPQVPLESDSVEFNNAISYVNKIKTRFLDHPEIYRSFLEILHTYQKEQLNTRGRPFRGMSEEEVFTEVANLFRGQEDLLSEFGQFLPEAKRSLFTGNGPCEMHSVQKNEHDKTPEHSRKRSRPSLLRPVSAPAKKKMKLRGTKDLSIAAVGKYGTLQEFSFFDKVRRVLKSQEVYENFLRCIALFNQELVSGSELLQLVSPFLGKFPELFAQFKSFLGVKELSFAPPMSDRSGDGISREIDYASCKRIGSSYRALPKTYQQPKCSGRTAICKELDHWTLLQGSWTDDYCMSKFKNTCWIPGYSAGVLNDTWVSFPSWSEDSTFVSSKKTPYEEQLHRCEDERFELDVVLETNLATIRVLESVQKKLSRMAPEDQEKFRLDDSLGGTSEVIQRRAIYRIYGDKAPEIIESLKKNPVTAVPVVLKRLKAKEEEWREAQQGFNKIWREQYEKAYLKSLDHQAVNFKQNDTKALRSKSLLNEIESVYDEHQEQHSEGRSAPSSEPHLIFVYEDRQILEDAAALISYYVKRQPAIQKEDQGTIHQLLHQFVPSLFFSQQLDLGASEESADEDRDSPQGQTTDPSERKKPAPGPHSSPPEEKGAFGDAPATEQPPLPPPAPHKPLDDVYSLFFANNNWYFFLRLHQTLCSRLLKIYRQAQKQLLEYRTEKEREKLLCEGRREKGSDPAMELRLKQPSEVELEEYYPAFLDMVRSLLEGSIDPTQYEDTLREMFTIHAYVGFTMDKLVQNIARQLHHLVSDDVCLKVVELYLNEKKRGAAGGNLSSRCVRAARETSYQWKAERCMADENCFKVMFLQRKGQVIMTIELLDTEEAQTEDPVEVQHLARYVEQYVGTEGASSSPTEGFLLKPVFLQRNLKKFRRRWQSEQARALRGEARSSWKRLVGVESACDVDCRFKLSTHKMVFIVNSEDYMYRRGTLCRAKQVQPLVLLRHHQHFEEWHSRWLEDNVTVEAASLVQDWLMGEEDEDMVPCKTLCETVHVHGLPVTRYRVQYSRRPASP
In the case of B2, the binding result in test [7] and in test [8] was “no binding” in each case.
